The record followed here is the RNAGym collection of RNA variant scans (doi:10.1101/gad.245936.114).

Variants at the background level are over-represented here. Bounds are passed on as bounds.

B1: tRNA (parent)
chain: CUCUCGGUAGCCAAGUUGGUUUAAGGCGCAAGACUUUAAUUUAUCACUACGAAAUCUUGAGAUCGGGCGUUCGACUCGCCCCCGGGAGAUUUUUUCCUCGAGCAA

Variants of B1 are the subject of this data set. The data set is described as follows: nonsense suppression (GFP-seq) (ratio to wild type); higher = more function; SUP4oc tRNA, yeast GFP reporter sort-seq. An outline of the steps: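 Sorted GFP/RFP bins of yeast were each Illumina-sequenced with a phred ≥30 cutoff; the cells held a genome-integrated ochre-suppressor tRNA variant from a library with ~3% random mutations, a galactose-driven GFP ochre reporter, and RFP. Culture was in raffinose/galactose medium containing 80 mg/L adenine. Nonsense suppression, termed GFPSEQ, is the median GFP/RFP of the bins weighted by each variant's estimated cell share per bin, relative to the unmutated parent tRNA, for variants reaching ≥100 reads and ≥30 cells.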
With A23G G86A, the nonsense suppression was no more than 0.026.
Then G18A A24C C56U, with no more than 0.026; and C27U U35C A74G, with no more than 0.026; and U2G C29A A54C, with no more than 0.026.
Then A9G C12U G61A U70A, with no more than 0.026; and C1G C72A C82G, with no more than 0.026.
Turning to C12G C34G, the nonsense suppression was no more than 0.026.
Then U22C A31U C80G G86U, with no more than 0.026.
As for C5G G10C, the nonsense suppression is no more than 0.026.
For the variant G10U A54C, the nonsense suppression was no more than 0.026.
Then A31G A54C, with 0.0977.
G18A A54C G88A: the nonsense suppression was no more than 0.026.
As to A14C G73A G88A, the nonsense suppression was no more than 0.026.
With C3A C11G C12G G69U A89U, the nonsense suppression is no more than 0.026.
Regarding U8G U76C, the nonsense suppression was no more than 0.026.
Then C11U G61C A87G, with no more than 0.026.
Then C12A A23C, with no more than 0.026; and G7U A14C G61C G88C, with no more than 0.026.
Next, C56A U76C: no more than 0.026.
As to G7A C77U, the nonsense suppression is no more than 0.026.
As for G6U A9G A13U G19U G28U C34G U58C C81G, the nonsense suppression is no more than 0.026.
Then U17C A60C C82U, with no more than 0.026.
For the variant C3A G66C, the nonsense suppression was no more than 0.026.
As for C1A G67A G84U, the nonsense suppression is no more than 0.026.
As for A14U C56A U70G, the nonsense suppression was no more than 0.026.
Then U17A C68A, with no more than 0.026; and U21A C81G, with no more than 0.026; and C29A U35G C56A U71A, with no more than 0.026.
In the case of U2C G88C, the nonsense suppression is no more than 0.026.
Then A31G C34U A60G C79A C80G, with no more than 0.026.
Then U8C A24C G78C, with no more than 0.026.
Then U16A U57C U76C, with no more than 0.026.
As for C5G A9U C11G A33C C77G G84A, the nonsense suppression is no more than 0.026.
Next, A31G G61A G78U C83U: no more than 0.026; U17G U20A A62C: no more than 0.026.
Regarding U21G U58A G59A G61A U63G G67C, the nonsense suppression was no more than 0.026.
Then U4G G7U U8A G84C, with no more than 0.026; and C29G U71A, with no more than 0.026.
Then A31U G85C, with no more than 0.026.
Then A14U C27G U55C A60U C75G, with no more than 0.026.
Turning to A62C C72U, the nonsense suppression was no more than 0.026.
In the case of A23G A33U G59U G66A, the nonsense suppression is no more than 0.026.
Regarding C3U U20C A31U G84A, the nonsense suppression was no more than 0.026.
Then G7C A23U, with no more than 0.026.
Then U55C G88C, with 0.0568; and U8A A87G, with no more than 0.026.
Next, C1A G15U A54C: no more than 0.026.
Regarding C11A C56U U58A, the nonsense suppression is no more than 0.026.
Take U35A G85A: the nonsense suppression is no more than 0.026.
As for C11A C29G G88U, the nonsense suppression was no more than 0.026.
Then G15U U20G C79G C80A, with no more than 0.026; and C27G G78C C83U, with no more than 0.026; and C3U A23G U57A, with no more than 0.026.
Next, A13C U55A: no more than 0.026.
Turning to U17A C79A G86C G88U, the nonsense suppression is no more than 0.026.
As to C3G G18A G32C U76C C77U C80G, the nonsense suppression is no more than 0.026.
Then C81U G84A, with 0.0642.
Next, G19C C27G A30U U55C: no more than 0.026; G26U G59U A62C G67A C83U: no more than 0.026; G6A U20G C34U A54U: no more than 0.026.
Take A13G U21G A60G U71G: the nonsense suppression was no more than 0.026.
With G19U U22C, the nonsense suppression is no more than 0.026.
For the variant U2G G67U, the nonsense suppression is no more than 0.026.
Then U17C C82A, with no more than 0.026; and A9G G19C A30C G67C U76G C82U, with no more than 0.026; and G15U A24G C64U, with no more than 0.026.
With G18A A31U, the nonsense suppression is no more than 0.026.
G18A A31G: the nonsense suppression was no more than 0.026.
On to C3A U35G U57G G69C C72G, for which the nonsense suppression was no more than 0.026.
As to A24C G25A A60C, the nonsense suppression is no more than 0.026.
Then G26A G73C, with no more than 0.026.
Then A9G G10U G65A G84A, with no more than 0.026; and A33G C80G, with no more than 0.026; and U22G A60G G67A A74C C81A G88U, with no more than 0.026.
On to A31C C75U C79A, for which the nonsense suppression was no more than 0.026.
Take U4A C5A: the nonsense suppression came out at 0.0374.
Next, A74G C82G: no more than 0.026; U8G G25U A31G A33G: no more than 0.026.
On to U4A G67C C80G, for which the nonsense suppression was no more than 0.026.
With C27A U35G C64G, the nonsense suppression is no more than 0.026.
Consider U57G C68A G85U, for which the nonsense suppression is no more than 0.026.
C3U U16G G73U C77A: the nonsense suppression is no more than 0.026.
As for G19C A31C A60C G86C, the nonsense suppression is no more than 0.026.
Then U55C C81G, with no more than 0.026; and A23U G61A C80U, with no more than 0.026; and C1U A13G G15U U76G G88C, with no more than 0.026.
Next, C12U A33G U57G A74G C81U: no more than 0.026; G18A A74C: no more than 0.026; A31G G61U U76A: no more than 0.026.
Turning to G7C C12A G66A C75A C82U, the nonsense suppression is no more than 0.026.
Consider G19U A23G, for which the nonsense suppression was no more than 0.026.
C29U G59U A89C: the nonsense suppression is no more than 0.026.
As to C1G A13G C68U, the nonsense suppression was no more than 0.026.
Consider G6A G85C A89C, for which the nonsense suppression was no more than 0.026.
Then C1G G28U G65U G69U, with no more than 0.026; and C5G C34G G85C, with no more than 0.026; and C12G G85C, with no more than 0.026.
Turning to U4G G7A C12A, the nonsense suppression was no more than 0.026.
On to G25A C27U C34U, for which the nonsense suppression was no more than 0.026.
Then A9U A33G A74U, with no more than 0.026.
Consider C1U U76G C81A, for which the nonsense suppression is no more than 0.026.
Next, A13C C29U G88U: no more than 0.026.
Consider A30U G32U A60U, for which the nonsense suppression was no more than 0.026.
Then U8C A60U U63A C72G, with no more than 0.026.
Then A13G A33U, with no more than 0.026.
Then U4C U58G G61A A89G, with no more than 0.026; and U8G A24G C81A, with no more than 0.026; and C3A G69A A87C, with no more than 0.026.
G66C G69A U71C A74C A89G: the nonsense suppression was no more than 0.026.
Then G10A C11G A31C C68U, with no more than 0.026; and G6A U57C, with no more than 0.026; and C29U U57G, with no more than 0.026.
Then U2A G7C A13C, with no more than 0.026.
Then A74C C81G G85C, with no more than 0.026; and C5G C64U G78C, with no more than 0.026.
Turning to A9C A89G, the nonsense suppression was no more than 0.026.
Then G25A A62C A89C, with no more than 0.026; and G78C A87C, with no more than 0.026; and C11U C83G, with no more than 0.026.
Then G10U C27U C29A A60C U76G, with no more than 0.026.
Regarding A31U A62C C68G, the nonsense suppression is no more than 0.026.
Next, C1U G66A: 0.254; U22G A33U: no more than 0.026; U22G G25U G66A A89G: no more than 0.026.
U8A G15U U17C G85A: the nonsense suppression was no more than 0.026.
With U2G A31C G32U U57C, the nonsense suppression is no more than 0.026.
C34G C81A: the nonsense suppression was no more than 0.026.
With A14G U21C G66C, the nonsense suppression was no more than 0.026.
Next, U8A A24U G78A: no more than 0.026; U21C A54U U57C G59A A89G: no more than 0.026; U57C C75U C79A: no more than 0.026.
On to A31U G73C, for which the nonsense suppression is no more than 0.026.
On to G7C A74C U76C, for which the nonsense suppression is no more than 0.026.
Take U8C A14U U35C: the nonsense suppression is no more than 0.026.
Then C5G A9C G32A G65C, with no more than 0.026; and U17C U35C G67A, with no more than 0.026.
Then C11G G69C, with no more than 0.026.
Turning to A13U G18A A24C C29U C56A G88A, the nonsense suppression was no more than 0.026.
Regarding G28U C79A, the nonsense suppression was no more than 0.026.
With U2C U17A, the nonsense suppression was found to be 0.0435.
Then G18U C29G G73C, with no more than 0.026; and G28C G66U, with no more than 0.026; and A33U U57A A60G, with no more than 0.026.
Next, U16G U76C: 1.07; C1U C12G G32C A33G: no more than 0.026; G67A G78A: no more than 0.026.
Then A9U U21C A33G, with no more than 0.026; and G6U C34A G78C, with no more than 0.026.
For U20A A33U G84U, the nonsense suppression was no more than 0.026.
Then G7U G65U, with no more than 0.026; and G19U A30C C72G, with no more than 0.026.
Take C5G U35A U58C G73U: the nonsense suppression is no more than 0.026.
Then C11U C56A U70A, with no more than 0.026; and G15C C27G C34U, with no more than 0.026.
Then A24U C29U, with 0.233.
As for A24U U35G A87C, the nonsense suppression was no more than 0.026.
Regarding G10A C27U, the nonsense suppression was no more than 0.026.
For U4A, the nonsense suppression came out at 0.693.
Then U8A A31C C64G U71A, with no more than 0.026; and U55A G78U, with no more than 0.026.
Next, A13G G32U G59C C64U G88C: no more than 0.026; C27G A60C C64A: no more than 0.026.
With C1G U55G G67U, the nonsense suppression is no more than 0.026.
Regarding U17A A87G, the nonsense suppression was determined as 1.19.
Then G10A A24C G85U, with no more than 0.026.
Next, A31C A33G U76A: no more than 0.026.
Next, C11U A62U G73A C82U A89G: no more than 0.026.
